Experimental data reported in PubChem BioAssay AID504339 (National Center for Advancing Translational Sciences (NCATS), 2011).
Screen size: about 390,000 compounds; about 17,000 (4.4%) were called active. Inconclusive means that the source gave no clear call. Such entries were picked first, then a sample of the others. Calls follow the shape of the dose curve; as a rule, active = well fitted inhibition curve with a large enough effect; inconclusive = small, poorly fitted or top-dose-only effect; inactive = no such curve, though single readings can be large or run the other way. Potencies of inconclusive entries are doubtful fits and often do not repeat.

target: Lysine-specific demethylase 4A (Homo sapiens) (UniProt O75164); assay: qHTS Assay for Inhibitors of JMJD2A-Tudor Domain; settings: AlphaScreen JMJD2A-Tudor / H3K4me3 peptide binding; series mostly up to 114 µM; also: nearly all actives have a fitted effect of over 50% in size
Chain of UniProt O75164 (O75164 whole entry, looked up, the tested form may be a part): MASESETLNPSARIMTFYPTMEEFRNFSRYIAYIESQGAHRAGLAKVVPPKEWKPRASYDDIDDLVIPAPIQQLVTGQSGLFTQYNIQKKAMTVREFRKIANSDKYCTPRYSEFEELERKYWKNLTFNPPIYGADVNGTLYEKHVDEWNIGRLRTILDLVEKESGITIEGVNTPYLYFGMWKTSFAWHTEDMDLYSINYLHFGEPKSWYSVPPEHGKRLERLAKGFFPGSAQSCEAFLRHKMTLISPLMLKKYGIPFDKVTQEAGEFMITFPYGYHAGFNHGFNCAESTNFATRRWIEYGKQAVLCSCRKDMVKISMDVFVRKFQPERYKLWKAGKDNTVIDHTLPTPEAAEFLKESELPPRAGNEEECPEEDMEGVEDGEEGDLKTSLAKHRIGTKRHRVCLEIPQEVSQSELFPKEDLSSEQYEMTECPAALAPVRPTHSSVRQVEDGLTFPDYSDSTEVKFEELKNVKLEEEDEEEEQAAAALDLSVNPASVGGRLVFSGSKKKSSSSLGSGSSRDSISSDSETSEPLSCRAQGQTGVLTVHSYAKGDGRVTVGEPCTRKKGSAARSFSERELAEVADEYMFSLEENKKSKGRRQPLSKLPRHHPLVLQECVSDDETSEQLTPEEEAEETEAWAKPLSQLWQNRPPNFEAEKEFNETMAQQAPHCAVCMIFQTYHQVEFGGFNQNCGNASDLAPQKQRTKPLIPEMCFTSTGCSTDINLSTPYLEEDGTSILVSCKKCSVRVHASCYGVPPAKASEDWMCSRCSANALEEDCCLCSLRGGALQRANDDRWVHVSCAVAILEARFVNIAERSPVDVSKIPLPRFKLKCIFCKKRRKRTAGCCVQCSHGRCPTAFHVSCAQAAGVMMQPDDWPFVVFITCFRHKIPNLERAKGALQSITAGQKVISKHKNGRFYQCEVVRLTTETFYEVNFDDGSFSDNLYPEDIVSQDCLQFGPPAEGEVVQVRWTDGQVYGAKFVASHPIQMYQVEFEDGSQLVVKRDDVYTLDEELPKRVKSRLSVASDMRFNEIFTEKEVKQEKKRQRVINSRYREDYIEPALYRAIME
Potency is read from the fitted curve at half-maximal effect; tags tell the direction and shape of the fitted curve.

Row | SMILES | Potency
1 | Cc1ccc(CS(=O)(=O)c2ncc(Cl)c(C(=O)Nc3nnc(C)s3)n2)cc1 | inconclusive: 50.1 µM [inhibitor, partial curve]
2 | CCOC(=O)C1(C)NC(c2ccccc2F)C2C(=O)N(c3cccc(C(C)=O)c3)C(=O)C21 (centres undefined) | active: 35.5 µM
3 | CN(C)S(=O)(=O)c1ccc(S(=O)(=O)N2CCCC(C(=O)NC3CC3)C2)cc1 (centres undefined) | inconclusive: 20 µM [inhibitor, full curve]
4 | CCOc1ccc(C2=Nc3ccccc3C(c3ccc(N4CCOCC4)cc3)=NN2)cc1 | inconclusive: 39.8 µM [inhibitor, partial curve]
5 | CCOc1nc(NC(C)C)nc(NC(C)C)n1 | inactive
6 | c1nc(NCCc2cnc[nH]2)c2ccc(-c3ccc4c(c3)OCO4)cc2n1 | active: 79.4 µM
7 | CC1CC(C)CN(S(=O)(=O)c2ccc(NC(=O)[C@@H]3CCCN3C(=O)c3cccs3)cc2)C1 (some centres undefined) | inactive
8 | CCN1C(=NCCc2cccs2)N[C@@H](c2cccs2)C(C(=O)OC)=C1C | inconclusive: 15.8 µM [inhibitor, partial curve, poor fit]
9 | CN(C)CCN=Cc1c(O)n(-c2ccc(S(=O)(=O)N3CCOCC3)cc2)c(=O)c2ccccc12 | inconclusive: 22.4 µM [inhibitor, partial curve, poor fit]
10 | CCNc1nc(NCC)nc(NC(N)=S)n1 | inactive
11 | Cc1csc(B(O)O)c1 | inactive
12 | CN(C)CC(=O)N1CCc2ccccc2C1 | active: 11.2 µM
13 | Cc1ccc(C)c(-c2cc(C(=O)Nc3sc(C)c(C)c3C(N)=O)c3ccccc3n2)c1 | inconclusive: 39.8 µM [inhibitor, partial curve]
14 | CC(=O)Nc1ccc(NS(=O)(=O)c2ccc3ccccc3c2)cc1 | active: 28.2 µM
15 | COc1ccc(CNC(=O)CN(c2ccccc2OC)S(=O)(=O)c2ccc(C)cc2)cc1 | inconclusive: 100 µM [inhibitor, partial curve, poor fit]
16 | O=C(NNc1ccc([N+](=O)[O-])cc1[N+](=O)[O-])c1ccco1 | inconclusive: 50.1 µM [inhibitor, partial curve]
17 | CCOC(=O)N1CCN(C(=O)CCc2ccc(S(=O)(=O)NC(C)(C)C)cc2)CC1 | inactive
18 | CCCCCCOc1ccc(/C(C)=N/NC2=NCCN2)cc1[N+](=O)[O-] | inconclusive: 22.4 µM [inhibitor, full curve, poor fit]
19 | CN1CCN(S(=O)(=O)c2ccc(N(C)Cc3ccc(OC(F)F)cc3)c([N+](=O)[O-])c2)CC1 | inconclusive: 25.1 µM [inhibitor, full curve]
